From PubChem BioAssay AID602393 (Broad Institute, 2012)
In all, about 350,000 compounds went through this assay and about 7,000 (2%) were called active. This list was built around the results that the source calls inconclusive (neither active nor inactive); the mix of calls is not that of the screen. Cut-off read from the data, not from the text of the source: active = activation above about 40%; inconclusive = no clear call, values can overlap the other calls; inactive = below that.

Test: raisers of Bmi1 knock-in reporter signal – mouse ES cells, Bmi1 luciferase knock-in, single point, esBAF inhibitor project, primary screen (AID 602393);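 note: 0% = median of the plate's neutral control wells and 100% = double that signal; a rise in the Bmi1 reporter signal indicates esBAF inhibition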
Conditions: 24 h, at 12.5 µM, stronger effect = higher value, 100% = twice the neutral-well signal

Structure (SMILES) | reporter increase
CC(C)[C@@H](CO)NC(=O)c1ccc2c3n(nc2c1)-c1ccc(Cl)cc1CO3 | active: 59.1%
Nc1ccc2nc(SCc3ccc([N+](=O)[O-])cc3)sc2c1 | inconclusive: 43.2%
O=C(NCCc1ccccc1F)c1cc(COc2ccc(F)cc2F)on1 | inconclusive: 42%
CC(=O)c1sc(NC(=O)c2cccs2)nc1C | inconclusive: 27.9%
C[C@H](CO)N1C[C@H](C)[C@H](CN(C)Cc2ccc(Cl)c(Cl)c2)Oc2ccc(NC(=O)c3ccncc3)cc2CC1=O | inactive: 9%
C[C@@H]1CCCCO[C@H](CN(C)S(=O)(=O)c2cccs2)[C@@H](C)CN([C@@H](C)CO)C(=O)c2cc(NS(C)(=O)=O)ccc2O1 | inactive: -4.81%
C[C@H]1CN([C@@H](C)CO)C(=O)c2cccc(NS(C)(=O)=O)c2O[C@@H]1CN(C)C(=O)Nc1cccc2ccccc12 | inactive: -3.17%
Cc1ccc(NC(=O)CCCc2ccccc2)nc1 | inconclusive: 52.5%
COc1ccc2[nH]c(-c3ccccc3)cc2c1 | inconclusive: 34%
Cc1ccc2c(COC(=O)c3ccccc3Cl)cc(=O)oc2c1 | active: 70.9%
CCOc1ccc(CCN2C(=S)N([C@@H](CC(C)C)CN3CCCC3CN3C(=S)NC[C@@H]3Cc3ccc(O)cc3)C[C@@H]2Cc2ccccc2)cc1 (stereo not given in full) | inactive: 6.54%
CCCCN(C(=O)c1cccc(N2C(=O)c3ccccc3C2=O)c1)c1c(N)n(CC(C)C)c(=O)[nH]c1=O | inactive: -5.58%
COc1cc2c(cc1NCc1ccccn1)oc1ccccc12 | active: 45.5%
COc1cc(/C=N/O)ccc1OCc1ccccc1Cl | inactive: 40.3%
COc1ccc2nc3oc(C(=O)N4CCCCC4)cc3cc2c1 | inconclusive: 52.5%
O=C(O)c1ccccc1NN=C1CCCCC1 | active: 83%
O=C(NNc1nc2ccccc2s1)Nc1ccc(F)cc1 | inconclusive: 45.9%
O=S(=O)(c1ccc(F)cc1)N1CN(Cc2ccco2)c2nc3ccccc3nc21 | inconclusive: 40.5%
CO[C@@H]1CC[C@@H]2CCN(C)C(=O)[C@@H](C)CN(C)C(=O)c3cc(C#N)ccc3OC[C@@H]1O2 | inactive: 0.421%
CCCC/C=C1\CCc2c([nH]c3ccccc23)C1=O | inconclusive: 52.1%
CCOC(=O)CNc1c(-c2ccc(OC)cc2)nc2ccc(Cl)cn12 | inconclusive: 51.7%
CCc1nnc(NC(=O)c2ccc3ccccc3n2)s1 | inconclusive: 40.3%
[O-][N+]1=c2ccc(Nc3ccccc3)cc2=NC12CCCCC2 | inconclusive: 40.4%
C[C@@H](NC(=O)C[C@@H]1CC[C@@H](NC(=O)C2CCOCC2)[C@H](CO)O1)c1ccccc1 | inactive: 3.76%
Brc1ccccc1-n1nnc(-c2cnc3ccccc3c2)n1 | inconclusive: 40.6%
Cc1ccc(-c2nc3ccccc3o2)cc1NC(=S)NC(=O)c1cccs1 | inconclusive: 47.3%
c1ccc(CSCc2cn3ccsc3n2)cc1 | active: 59.4%
COc1ccc(-c2csc(-n3ncc(C(=O)O)c3C(F)(F)F)n2)cc1 | inconclusive: 52.4%

Structure (SMILES) | reporter increase
COc1ccc(/C=C/c2ccc3c(Br)ccc(O)c3n2)cc1 | inconclusive: 56.5%
O=C(CN1CCN(Cc2cccc(F)c2)CC1)NCc1ccccc1 | inactive: -9.24%
O=C(CCN1CCCCC1)N[C@H]1C=C[C@@H](CC(=O)N2CCC(Cc3ccccc3)CC2)O[C@H]1CO | inactive: -5.92%
CN(C)Cc1cn(CC[C@@H]2CC[C@@H](NC(=O)Nc3ccc4c(c3)OCO4)[C@@H](CO)O2)nn1 | inactive: 5.01%
O=C(CSc1nnc2ccccn12)Nc1ncc(Cl)cc1Cl | inconclusive: 58.1%
COc1ccc(Nc2nc(-c3cccc(OC)c3O)nc3ccccc23)cc1 | inconclusive: 41%
Cc1cc(C)nc(Nc2ccc(C(=O)O)cc2)n1 | inconclusive: 40.4%
O=C1NC2(C=Cc3c(ccc4ccccc34)O2)Oc2ccccc21 (stereo not given) | inactive: 3.52%
COc1ccccc1-c1cccc([C@@H]2C[C@H]3[C@H](CON3C)CN2Cc2ccccc2)c1 | inactive: -6.24%
C/C(CC(=O)Nc1ccc(N(C)C)cc1)=N\NC(=O)c1ccccc1O | inconclusive: 42%
Cc1cccc(-c2nnc3sc(-c4ccccc4)nn23)c1 | active: 41.9%
CCCNC(=O)c1noc2c1CCc1ccccc1-2 | inconclusive: 40.8%
COc1ccc(C(=O)Nc2ccccc2C(=O)Nc2ccccn2)cc1 | inconclusive: 41.5%
O=C(Cc1cccs1)NCc1cccc(C(F)(F)F)c1 | inconclusive: 57%
CCOc1ccc(-c2ccc(SCC(=O)NC3CCCCC3)nn2)cc1 | inconclusive: 42.4%
COc1cc(NC(=O)C2CCCN(S(=O)(=O)c3ccc4[nH]c(=O)ccc4c3)C2)cc(OC)c1 (stereo not given) | inactive: 2.68%
COc1ccc(C(=O)Nc2ccc3[nH]ccc3c2)cc1OC | inconclusive: 40.4%
O=C1Nc2ccccc2/C1=C/c1cnc(-c2ccccc2)[nH]1 | inconclusive: 52.9%
O=C(COc1ccccc1Cl)NCc1ccccc1 | inconclusive: 42.9%
C[C@H](O)C#Cc1ccc([C@H]2[C@@H](CO)N3CCCCN(C(=O)Nc4ccccc4)C[C@H]23)cc1 | inactive: 11.9%
CC=Cc1ccc2n(c1=O)C[C@@H]1[C@@H](CO)[C@H](C(=O)N3CCCCC3)[C@H]2N1C(=O)C1CC1 (mixture of isomers) | inactive: -2.49%
Cc1ccc(-n2nnnc2SCC(=O)NC(=O)Nc2ccc3c(c2)OCCO3)cc1 | inconclusive: 40.9%
COc1ccc(-c2cn3cc(Br)cnc3n2)cc1 | inconclusive: 46.7%
CCOC(=O)C1(CC2CC2)CCN(C(=O)c2cc(OC)nc3ccccc23)CC1 | inconclusive: 43%
CN(CC(=O)Nc1nc2ccccc2s1)S(=O)(=O)c1ccccc1 | inconclusive: 42.7%
COc1ccc(OCc2cc(C(=O)N3CCN(C4CCCC4)CC3)no2)c(Cl)c1 | inconclusive: 42.2%
COc1ccc(C(=O)Nc2ccc(-c3ccc(C)o3)cc2)cc1S(=O)(=O)N1CCOCC1 | inconclusive: 44.2%
